Source: PubChem BioAssay AID1508624 (National Center for Advancing Translational Sciences (NCATS), 2021)
In all, about 48,000 compounds went through this assay and about 120 (0.25%) were called active. About 4% were inconclusive and are not listed. Calls follow the shape of the dose curve; as a rule, active = well fitted activation curve with a large enough effect; inconclusive = small, poorly fitted or top-dose-only effect, or another doubt; inactive = no such curve, though single readings can be large or run the other way. This is one part of the list.

Assay: Primary qHTS for Identification of Small Molecule Activators of Huntingtin-Antisense Promoter Activity; also: nearly all actives have a fitted effect of over 55% in size
Details: HEK293 HTT-AS promoter firefly luciferase reporter (activity 0% = vehicle and -100% = no light), 24 h; series mostly up to 57.5 µM; activity change, positive = activation: at the top concentration
Procedure, shortened: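 Quantitative HTS used concentration series of up to 57.5 uM final on HEK293 luciferase reporter cells, 24 h at 37 degrees C. Readout was Dual-Glo firefly luminescence.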

Activity change, positive = activation, inactive:
COc1ccc(-c2noc(N3CCC(C(=O)Nc4cccc(C)c4C)CC3)n2)cc1 -59%, COc1ccc(CCNC(=O)c2ccc3c(c2)CCN3S(=O)(=O)c2ccccc2)cc1 -22%, CCOc1cc(CNC(=O)c2cc(-c3ccccc3)n[nH]2)cc(OCC)c1OCC -9.96%, COc1ccc(NC(=O)c2oc3ccc(S(=O)(=O)N4CCOCC4)cc3c2C)c(OC)c1 -17.4%, COc1ccc(CCNC(=O)c2cnn(-c3ccc(F)cc3)c2C2CCN(C(=O)OC(C)(C)C)CC2)cc1OC -12.5%, COc1ccc(N2CCN(C(=O)c3cc4c(=O)n(Cc5cccnc5)ccc4nc3C)CC2)cc1 -11%, O=C(CN1C(=O)C2(SCC(=O)N2c2ccc(F)c(F)c2)c2ccccc21)NCCc1ccccc1 (stereo not given) -10.2%, CCOc1cc(C(c2c(C)[nH]n(-c3ccccc3)c2=O)c2c(C)[nH]n(-c3ccccc3)c2=O)ccc1O -87%, Cc1[nH]c2ccc(C(=O)N3CCN(c4ccccc4F)CC3)cc2c1C -16.4%, CCN(CC)S(=O)(=O)c1ccc(NC(=O)Cn2ncc3c([nH]c4ccccc43)c2=O)cc1 -22.2%, CC(Oc1ccccc1)C(=O)Nc1ccc(C(=O)OCc2cc(=O)n3nc(C(C)C)sc3n2)cc1 (stereo not given) 18.7%, O=C(NCCc1ccc(F)cc1)C(=O)NCC(c1ccco1)S(=O)(=O)c1ccccc1 (stereo not given) -21.4%, CCOc1ccc(/C=C/c2nc(C#N)c(N3CCN(CC)CC3)o2)cc1 -14.3%, COC(=O)c1ccc(NC(=O)c2c(NCc3cccc(F)c3)sc3c2CCCC3)cc1 -7.11%, Cc1cc2c(cc1S(=O)(=O)N(CCN(C)C)Cc1ccccc1)OCC(=O)N2 -7.09%, COc1ccccc1C(c1c(O)cc(C)n(Cc2ccco2)c1=O)N1CCCCC1 (stereo not given) 8.53%, CCC(Oc1ccccc1F)C(=O)Nc1cc(-c2ccccc2)no1 (stereo not given) 13.5%, COc1ccc(C(=O)NCCn2cc(SCC(=O)Nc3ccc4c(c3)OCCO4)c3ccccc32)cc1 -63.6%, Cc1cccc(N2CCN(S(=O)(=O)c3cc(C(=O)Nc4ccc(Oc5ccccc5)cc4)ccc3F)CC2C)c1 (stereo not given) -46.1%, Cc1nn(-c2ccccc2)c2sc(C(=O)Nc3ccc(Cl)cc3Cl)cc12 -7.11%, CCCCN(C)CCNC(=O)c1nn(-c2ccc(OC)c(Cl)c2)c(=O)c2c1c1ccccc1n2C -3.01%, COc1ccc(CNC(=O)Cn2c(=O)c3cccn3c3cccnc32)cc1 -12.4%, COc1ccc(C(=O)Nc2nnc(SCc3cc(=O)c4cc(C)ccc4[nH]3)s2)cc1OC -6.2%, Cc1cccn2c(=O)c(C(=O)N3CCN(c4ccccc4F)CC3)cnc12 -9.76%, CCN(CC)c1ccc2cc(-c3nnc(Nc4ccc(C)cc4)s3)c(=O)oc2c1 -12.4%, COC(=O)C1=C(CS(=O)(=O)c2ccc(C)cc2C)NC(=O)NC1c1ccc(C)cc1 (stereo not given) -35.6%, Cc1cc(C)c(S(=O)(=O)NCc2ccc3c(c2)CCN3C(=O)c2ccccc2)c(C)c1 -29.8%, CCOc1ccccc1NC(=O)Cn1nnc(C(=O)NCc2cccs2)c1N -37.7%, CC(=O)N1c2ccccc2C(=O)C1N1CCN(c2ccc(Cl)cc2)CC1 (stereo not given) -16.5%, CCOc1c(Br)cc(C2C=C(C(=O)O)Nc3ncnn32)cc1OC (stereo not given) 4.61%, COc1ccc(NCc2cc3cc4c(cc3n(CC(=O)Nc3ccc(C)cc3C)c2=O)OCO4)cc1 4.55%, O=C(NCc1ccccc1)c1cc(Sc2cccc(Cl)c2)nc2ccccc12 -18.3%, CCOC(=O)c1cc(OC(=O)c2ccccc2F)n(-c2ccccc2)n1 -9.34%, Cc1ccc(-c2nc(S(=O)(=O)c3ccc(F)cc3)c(N3CCN(c4ccccc4)CC3)o2)cc1 -5.5%, Nc1nc2c(ncn2COCCO)c(=O)[nH]1, CC(C)C[C@H](N)c1nnc(SCc2ccc(Cl)cc2Cl)o1 -15.9%, Cc1ccccc1Nc1nn2c(=O)c3ccc(C(=O)NCC(C)c4ccccc4)cc3nc2s1 (stereo not given) -37.3%, CC1=C(c2ccc(C(C)C)cc2)S(=O)(=O)N=C1N1CCN(c2ccccc2F)CC1 -15.7%, COc1ccc(S(=O)(=O)N(CC(=O)NCCSc2ccc(C)cc2)c2ccc(C)cc2)cc1 -21.9%, CCOc1ccccc1NC(=O)CSc1c2c(nc3ccc(Cl)cc13)CCCC2 -15.2%, CCOC(=O)C1CCCN(S(=O)(=O)c2cc(-c3onc(C)c3C)ccc2OC)C1 (stereo not given) -30%, CCc1c(-c2ccccc2)nc2ccccc2c1C(=O)NC(C)c1ccccc1 (stereo not given) -34.4%, NC(=O)n1c(O)c(C(=O)c2cccs2)c2cc(Cl)ccc21 -72.9%, CCOc1ccccc1NC(=O)c1nc(S(=O)(=O)Cc2cccc(C)c2)ncc1Cl -22.4%, COc1ccc(-c2noc(CNC(=O)c3cc(OC)c(OC)c(OC)c3)n2)cc1 -8.88%, Cc1[nH]c2ccc(C(=O)NCCCN3CCCCC3)cc2c1C -8.37%, CC(=O)N1CCC(N(Cc2ccc(C)o2)C(=O)Nc2ccccc2F)CC1 -1.35%, CCCN(c1ccccc1F)S(=O)(=O)c1ccc2c(c1)C(C)(C)C(=O)N2C -31.3%, Cc1nc2c(c(C)c1CCC(=O)NCc1ccc(F)cc1)c(=O)n(C)c(=O)n2C -5.42%, CCCCCN(CCCCC)C(=O)C(CCC(=O)O)NC(=O)c1ccc(Cl)c(Cl)c1 (stereo not given) -4.04%, CCCCOc1cccc(C(=O)Nc2sc3c(c2C(=O)OCC)CCCC3)c1 -7.47%, COc1cccc(NC(=O)CSc2nc(=O)n(Cc3cccnc3)c3c2CCC3)c1 -20.8%, Cc1cccc2c(=O)cc(CSc3ccccc3NC(=O)C(C)C)[nH]c12 -11.7%, Cc1ccc2nc3c(cc(C#N)c(=O)n3-c3nnc(SCc4ccc(F)cc4)s3)c(=O)n2c1 -5.87%, CCOc1ccccc1NC(=O)Cn1c(=O)n(CC(=O)NCc2ccccc2Cl)c(=O)c2sccc21 7.14%, Cc1ccc(Sc2ccc(N3CCCC(C(=O)Nc4ccc(F)c(Cl)c4)C3)nn2)cc1 (stereo not given) -24.5%, CCCN(CCC)C(=O)Cn1c(=O)n(-c2ccc(OC)cc2OC)c(=O)c2c3c(sc21)CCC3 -14.1%, CCOc1ccc(CNC(=O)c2ccc3c(c2)c(C)c(C)n3C)cc1 0.259%, COc1ccc(CCNC(=O)CCCCn2c(=O)c3ccccc3n(Cc3cc(C)ccc3C)c2=O)cc1OC -8.31%, CCOc1ccc(-n2c(SCc3ccccc3)nc3c([nH]c4ccccc43)c2=O)cc1 -20.5%, CCCn1c2ccccc2c2cnn(CC(=O)NCC3CCN(Cc4ccc(C)cc4)CC3)c(=O)c21 -36.6%, CCOC(=O)c1ccc(NC(=O)c2c(NCc3sccc3C)sc3c2CCC(C)C3)cc1 (stereo not given) -45.6%, Cc1ccc(C)c(N2CCN(C(=O)CCc3nnc4n(C)c(=O)c5ccccc5n34)CC2)c1 -0.254%, CN1CCN(C(CNC(=O)C(=O)Nc2ccc(Cl)cc2)c2cccnc2)CC1 (stereo not given) -5.06%, CCOCCCNC(=O)c1c[nH]c2ccc(S(=O)(=O)N(C)c3ccc(Cl)cc3F)cc2c1=O -32%, CCOC(=O)c1cccnc1SCC(=O)N(CC)c1cccc(C)c1 -25.5%, CC(C)(C)c1ccc(OCC(=O)Nc2ccc(C(=O)OC3CCCCC3)cc2)cc1 -3.88%, COc1ccc(F)cc1S(=O)(=O)NCC(c1ccco1)S(=O)(=O)c1cccs1 (stereo not given) 15%, CC(C)Cn1nc(NC(=O)c2cccc(Cl)c2)c2cc3ccccc3nc21 -5.52%, CCc1ccccc1NC(=O)c1oc(=O)c2ccccc2c1-c1ccccc1 -15%, COc1ccc(Cl)cc1NC(=O)CSc1nc(=O)n(Cc2ccco2)c2c1CCC2 -42.5%, Nc1ccc(O)cc1 -3.03%, CCOC(=O)c1ccccc1NC(=O)c1cn(CC(C)C)c(=O)c2cc(OC)c(OC)cc12 -0.684%, Cc1ccc(-n2ncc3c(Nc4ccc(Oc5ccccc5)cc4)ncnc32)c(C)c1 -17.1%, COc1ccc(OC)c(-c2noc(CSc3nnc(-c4ccccc4)n3-c3ccccc3)n2)c1 -32.3%, Cc1ccc(OCC(=O)Nc2nnc(S(=O)(=O)N3CCc4ccccc43)s2)cc1 -13.2%, COc1ccc(N2CCN(S(=O)(=O)c3ccc(C4CCCCC4)cc3)CC2)cc1 -8.03%, Cc1ccc(NC(=O)Nc2nnc(SCC(=O)N3CCCCC3)s2)cc1 -12.7%, Cc1cc(N2CCOCC2)cc2[nH]c(-c3c(NC[C@@H](O)c4cccc(Cl)c4)cc[nH]c3=O)nc12 -39.5%, COc1ccc(Nc2cc(C)c3cc(NC(=O)c4ccccc4Cl)ccc3n2)cc1 -42.7%, COc1cccc(N2CC(NC(=O)c3cc4ccccc4o3)CC2=O)c1 (stereo not given) -6.82%, Fc1ccc(-c2noc3ncnc(NCCc4ccc(Cl)cc4)c23)cc1 -46.5%, CC(C)c1ccc2c(c1)NC(c1ccc(F)cc1)=NC(c1cccs1)=N2 -11.4%, Cc1nc2ncnn2c(C)c1CCC(=O)N1CCN(c2ccc(F)cc2)CC1 -11.3%, COc1cccc(CNC(=O)N2CCc3c(sc4c3CCCC4)C2c2ccc(F)cc2)c1 (stereo not given) -54.1%, Cc1cccc(C(=O)NCCc2nc3ccccc3n2Cc2ccccc2Cl)c1 -17.6%, Cc1cc(Nc2cccc(C(F)(F)F)c2)nc2ccc(NC(=O)Cc3ccc(Cl)cc3)cc12 -46.3%, CCOC(=O)CCc1c(C)nc2c(-c3ccccc3)c(C)[nH]n2c1=O -2.39%, O=C(CSc1nnc(-c2ccncc2)n1-c1ccccc1)Nc1ccc(F)cc1 -17.5%, CCOc1ccccc1CNC(=O)CSc1n[nH]c(-c2ccccc2)n1 -25.4%, CC(C)c1noc(-c2ccccc2OCC(=O)Nc2ccc([N+](=O)[O-])cc2)n1 -9.31%, COc1ccc(OC)c(C2C(C(=O)Nc3ccc(C)cc3C)=C(C)Nc3c(C(=O)Nc4ccc(F)cc4)cnn32)c1 (stereo not given) -3.34%, CCn1c2c(c(=O)n3ncc(C(=O)N4CCN(c5ccccc5)CC4)c13)CN(Cc1ccc(OC)cc1)CC2 -18.4%, Cc1cc(=O)n(Cc2cccc(Cl)c2)c2c1c(C)nn2C -24.2%, CCCCOc1cccc(C(=O)N(Cc2ccc(N(C)C)cc2)C2CCS(=O)(=O)C2)c1 (stereo not given) -30.3%
